Laboratory results published in PMC4336329 (PLoS ONE, 2015).
Hit rate of the full screen: of about 310,000 compounds, about 2,200 (0.71%) showed an effect of 50% or more. Effects have a minus sign here. This is one part of the list.

Molecular target: human ether-à-go-go-related gene (hERG) potassium channel (human, UniProt Q12809)
Assay: primary screen, population patch clamp on CHO cells stably expressing hERG

human ether-à-go-go-related gene (hERG) potassium channel, sequence (Q12809 whole entry, looked up): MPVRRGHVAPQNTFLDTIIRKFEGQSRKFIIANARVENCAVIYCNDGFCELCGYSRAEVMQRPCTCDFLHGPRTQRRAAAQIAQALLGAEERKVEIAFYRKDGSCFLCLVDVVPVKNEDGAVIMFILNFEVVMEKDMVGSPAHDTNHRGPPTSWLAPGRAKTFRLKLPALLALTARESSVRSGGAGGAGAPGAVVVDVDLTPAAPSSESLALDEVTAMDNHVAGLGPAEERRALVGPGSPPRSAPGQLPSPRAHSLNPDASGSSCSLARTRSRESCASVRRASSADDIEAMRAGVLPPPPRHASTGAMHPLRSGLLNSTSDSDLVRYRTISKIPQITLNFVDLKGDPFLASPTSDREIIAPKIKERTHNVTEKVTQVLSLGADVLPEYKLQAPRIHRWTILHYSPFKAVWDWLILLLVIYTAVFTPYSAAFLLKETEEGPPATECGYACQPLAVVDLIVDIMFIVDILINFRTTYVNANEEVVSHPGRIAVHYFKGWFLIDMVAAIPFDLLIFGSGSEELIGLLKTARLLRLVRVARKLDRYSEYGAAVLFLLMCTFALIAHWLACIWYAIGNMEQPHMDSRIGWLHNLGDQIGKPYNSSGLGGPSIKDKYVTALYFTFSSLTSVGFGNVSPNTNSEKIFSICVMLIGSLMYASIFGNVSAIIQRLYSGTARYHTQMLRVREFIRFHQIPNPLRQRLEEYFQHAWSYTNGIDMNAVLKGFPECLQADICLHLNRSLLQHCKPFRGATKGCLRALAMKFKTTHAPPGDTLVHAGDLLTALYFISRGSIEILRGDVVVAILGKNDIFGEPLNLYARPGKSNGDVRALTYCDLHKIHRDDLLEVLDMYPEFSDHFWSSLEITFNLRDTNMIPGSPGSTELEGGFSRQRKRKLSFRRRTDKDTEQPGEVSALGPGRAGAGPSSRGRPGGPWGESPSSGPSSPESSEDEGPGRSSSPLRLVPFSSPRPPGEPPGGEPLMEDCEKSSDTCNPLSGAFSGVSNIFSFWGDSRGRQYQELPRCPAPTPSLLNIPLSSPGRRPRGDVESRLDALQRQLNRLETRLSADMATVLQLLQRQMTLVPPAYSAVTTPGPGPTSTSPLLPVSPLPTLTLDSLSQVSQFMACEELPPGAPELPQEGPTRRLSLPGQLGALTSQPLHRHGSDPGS

SMILES | hERG current change (%, negative = inhibition) at 1uM
CCOC(=O)c1cccc(NC(=O)CCc2nnc3ccc(N4CCN(C)CC4)nn23)c1 | 12.3%
CCN1CCN(S(=O)(=O)c2ccc3[nH]c(=O)oc3c2)CC1 | 10.9%
c1ccc(Cn2nnnc2C(c2ccccn2)N2CCN(c3ccccc3)CC2)cc1 (centres unmarked) | 6.57%
CN(C)c1ncc(C(=O)O)cn1 | 14.2%
Cc1ccc(CNC(=O)C2CCC(CNS(=O)(=O)c3cccs3)CC2)cc1 (centres unmarked) | -17.8%
COc1ccc(C(=O)N/C(=C\c2ccc(Cl)cc2)C(=O)NCC2CCCO2)cc1 (centres unmarked) | 4.36%
CCc1nc2ccccc2c(C(=O)Oc2ccc(C(=O)OC)cc2)c1C | 8.96%
CN(Cc1ccc2c(c1)OCO2)C(=O)c1cc(-c2ccccc2)c(N2CCOCC2)s1 | 11.4%
Cc1nc(NC(=O)CSc2ccccc2N)sc1C | 2.21%
CC(C)Oc1ccc(Oc2ccc(C(F)(F)F)cn2)cc1 | 10.4%
CCN(CC)CC(=O)N1c2ccccc2Sc2ccccc21 | 8.21%
CCOC(=O)c1c(NC(=O)C(C)Sc2nnc(C)c(=O)[nH]2)sc2c1CCCC2 (centres unmarked) | 12.4%
O=C1c2ccccc2C(=O)N1CSc1nnnn1-c1ccccc1 | 9.46%
CCOc1ccccc1NC(=O)C(Sc1nnnn1C)c1ccccc1 (centres unmarked) | 16.8%
Cc1cc(C)nc(N2CCN(CC(=O)NCc3ccccc3)CC2)n1 | -3.58%
COCCCNC(=O)N1c2ccccc2Sc2ccccc21 | 11.2%
O=C(/C=C/c1ccc(OCCCF)cc1)Nc1ccnc(-c2cccnc2)n1 | 11.7%
CCC(C)(C)c1ccc2c(c1)C(=O)c1ccccc1C2=O | 3.25%
CC(NC(=O)C(NS(=O)(=O)c1cccc2nsnc12)C(C)C)c1ccccc1 (centres unmarked) | 3.06%
Cn1c(=O)c2c(SCc3c(F)cccc3Cl)nc(CC(C)(C)C)nc2n(C)c1=O | 8.71%
Cc1ccc(C(=O)NNC(=O)C2CCN(C(=O)OC(C)(C)C)CC2)cc1 | 13.3%
O=C(NCC(=O)N1CCCCCCC1)c1ccccc1Cl | 13.5%
Cn1ncc(SCc2ccccc2)c(Cl)c1=O | 16.2%

SMILES | hERG current change (%, negative = inhibition) at 1uM
CNC(=O)CN1C(=O)CSc2ncccc21 | 11.3%
CCOc1ccc(NC(=O)CN(C)S(=O)(=O)c2cccc3cccnc23)cc1 | 13.1%
COc1ccc(NC(=O)N(CCN2CCCC2)Cc2cc3cc(OC)c(OC)cc3[nH]c2=O)cc1 | 4.65%
CN1CCN(NC(=O)c2cn(-c3ccccc3)nc2-c2cccc(Br)c2)CC1.Cl | 21.5%
Cn1nccc1NC(=O)CC1(CC(=O)O)CCCCC1 | 8.91%
CCOC(=O)N1CCC(NC(=O)Cn2ncc3ccccc32)CC1 | 12.1%
COCCC(=O)N1CCC(C(=O)Nc2ccc(Oc3ccccc3)nc2)CC1 | 19.2%
CCc1ccccc1NC(=S)N(CCN(C)C)C(C)c1ccco1 (centres unmarked) | 16.2%
CCCCN(CCCC)Cc1ccc(C(=O)NNC(=O)Nc2ccc(Cl)cc2)o1 | 9.34%
CC(C)=CCc1c([C@@H]2CCc3ccc(O)cc3O2)cc2c(c1O)OC(C)(C)C=C2 | 15.5%
Cn1c2ccccc2c2nnc(SCC(=O)NC3CC3)nc21 | 10.4%
CC(C)(C)NC(=S)/N=C(\N)N[N+](=O)[O-] | 9.26%
CCCCCCNC(=O)Nc1ccccc1 | 17.7%
O=C(COC(=O)Cn1nnc2ccccc21)Nc1ccccc1Br | 0.589%
C=CSc1sc(Cl)c(N2CCOCC2)c1[N+](=O)[O-] | 5.62%
CCCCCCCCCCCCN1C/C(=C\C(=O)OCC)c2cc(C(F)(F)F)ccc2S1(=O)=O | 8.97%
O=C(Cc1ncc(C(F)(F)F)cc1Cl)NNc1cccc(F)n1 | 21.4%
O=C(NC(=S)Nc1ccc(S(=O)(=O)Nc2ncccn2)cc1)c1cccc(Br)c1 | 16.6%
CN(CC(=O)Nc1cccc(F)c1)CC(=O)NC(c1ccccc1)c1ccccc1 | 2.52%
O=C1COc2ccc(S(=O)(=O)NCCc3ccc(Cl)cc3)cc2N1 | 6.66%
Cc1ccc(C(C)C)c(OCc2nn(CC(=O)c3ccc(Cl)cc3)c3[n+]2CCCCC3)c1.[Br-] | 6.6%
COc1ccc(NC(=O)CCN2CC(C)OC(C)C2)c(OC)c1.Cl (centres unmarked) | 11.8%
C/C(=N/NC(=O)CSc1nc2ccccc2s1)c1ccncc1 | 4.94%

SMILES | hERG current change (%, negative = inhibition) at 1uM
C[C@@H](C(=O)O)[C@H]1C[C@]1(C)[C@H](NC(=O)OCc1ccccc1)c1ccccc1 | 8.33%
Cc1ccc(C(C)C)cc1OCC(=O)NC1CCCCCCC1 | 11.5%
O=C(c1cc(COc2ccc(F)cc2Cl)on1)N1CCC(c2ccncc2)CC1 | -29.1%
O=C(O)c1ccc(Nc2cc(Cl)c3nonc3c2[N+](=O)[O-])cc1 | 13.3%
O=C(C[n+]1cc(-c2ccc(Cl)cc2)n2c1CCC2)Nc1nc(-c2ccc(F)cc2)cs1.[Cl-] | 12.6%
CC(C)c1ccc(CN(C(=O)/C=C/c2ccco2)C2CCS(=O)(=O)C2)cc1 (centres unmarked) | 11.3%
CN(C)S(=O)(=O)c1ccc(Cl)c(NC(=O)CN2C(=O)NC3(CCc4ccccc43)C2=O)c1 (centres unmarked) | 6.94%
N#C/C(=C\c1ccc(OCCN2CCOCC2)cc1)C(=O)Nc1ccc(S(N)(=O)=O)cc1 | 13.3%
O=C1c2ccccc2C(=O)N1CCCc1nc(-c2ccc(Cl)cc2)no1 | 11.6%
O=C1CSC(c2ccccc2)N1Cc1ccccn1 (centres unmarked) | 13.7%
CC(=O)N1CCC(=NNC(=O)c2cccs2)CC1 | 1.76%
CS(=O)(=O)Nc1ccc2c(c1)nc1n2CCOC1 | -0.668%
COc1ccccc1CC(=O)Nc1ccc(-c2noc(COc3ccc(Br)cc3)n2)cc1 | 9.61%
COC(=O)c1ccc(COc2cccc3c2CCN(Cc2cccc(C)c2)C3=O)o1 | 10.9%
O=C(CN1CCN(c2ccccn2)CC1)Nc1ccc(F)c(F)c1 | -4.56%
COc1ccc(-c2nnc(-c3cccs3)o2)cc1OC | -8.4%
O=C(OCC1OC(n2ccc(=O)[nH]c2=O)C(O)C1OC(=O)c1ccccc1)c1ccccc1 (centres unmarked) | -4.77%
Cc1ccc2c(c1)c(/C=C/c1cc[n+](C)cc1)c(C)n2C.[I-] | 6.16%
CC(=O)Nc1ccc(S(=O)(=O)N2CCN3CCCC3C2)cc1 (centres unmarked) | 12.9%
CC1(O)C(=O)C=C2C=C(c3ccsc3)OC=C2C1=O (centres unmarked) | 3.84%
COc1cc(Cl)c(C)cc1NC(=O)Cc1cccs1 | 14.7%
COc1ccccc1N=c1scc(-c2ccc3c(c2)NC(=O)CO3)n1CC1CCCO1 (centres unmarked) | -0.659%
O=C(CCCN1C(=O)c2ccccc2C1=O)Nc1ccccc1C(=O)N1CCOCC1 | 13.6%

SMILES | hERG current change (%, negative = inhibition) at 1uM
Cc1c(NC(=S)NC(=O)C2CCCCC2)c(=O)n(-c2ccccc2)n1C | 13.1%
O=C(Nc1ccc(F)cc1)Nc1ccc(Cl)cn1 | -0.0419%
Cc1cccc(N2CCN(C(=O)c3noc4c3COc3ccc(C)cc3-4)CC2C)c1 (centres unmarked) | 5.78%
CCOc1ccc(OCCNC2CCCC2)cc1 | 2.09%
Cc1cccc(C(=O)NC2CC3CCCC(C2)N3S(=O)(=O)c2ccccc2)c1 (centres unmarked) | -63.4%
COc1ccc(C(=O)CSc2nnc(NC(=O)C3CC(=O)N(c4cccc(OC)c4)C3)s2)cc1 (centres unmarked) | 17.6%
CCN1CCN(C(=S)NC(CC(=O)c2ccccc2)c2ccccc2)CC1 (centres unmarked) | 6.93%
COC(=O)Cc1ccc(NC(=S)NCc2ccccc2)cc1 | 7.84%
O=C(Nc1ccc(S(=O)(=O)Nc2nccs2)cc1)c1cccc(F)c1 | 9.61%
Cc1c(O)ccc(-c2n[nH]c(C(=O)O)c2-c2nc3ccccc3s2)c1O | 7.78%
CC(C)(C)c1cc(CCC(=O)NCc2ccccn2)cc(C(C)(C)C)c1O | 7.58%
C=CCC(NCc1ccccc1)c1ccc(C)o1.Cl (centres unmarked) | 10%
Cc1ccc(/C=C2\Oc3c(ccc(O)c3CN3CCN(CCO)CC3)C2=O)cc1 | 6.51%
COc1ccccc1N1CCN(C(=O)CCC(=O)O)CC1 | 8.72%
CCc1ccc(-c2cc(C)no2)cc1S(=O)(=O)N1CCN(c2ccccc2OC)CC1 | 9.66%
O=S(=O)(CCN1CCOCC1)c1ccc(Cl)cc1 | 10.2%
CCn1c(-c2cccnc2Cl)nc2ccccc21 | 2.16%
O=C(COC(=O)c1ccc(O)cc1O)NC(=O)NCc1ccccc1 | 6.94%
CCOC(=O)CSC1=C(C#N)C(c2ccco2)C(C(=O)OCc2ccccc2)=C(C)N1 (centres unmarked) | -0.541%
COc1ccc2nc(C)cc(NCCN3CCOCC3)c2c1 | 12.3%
